# Over roughly 33,000 sequences, “E-score (-0.5 to 0.5)” has its median near -0.011; the highest 2% begin near 0.28. The list shows a part of the results.
# Target: T1, Gcr1 (UniProt P07261)
# T1 sequence: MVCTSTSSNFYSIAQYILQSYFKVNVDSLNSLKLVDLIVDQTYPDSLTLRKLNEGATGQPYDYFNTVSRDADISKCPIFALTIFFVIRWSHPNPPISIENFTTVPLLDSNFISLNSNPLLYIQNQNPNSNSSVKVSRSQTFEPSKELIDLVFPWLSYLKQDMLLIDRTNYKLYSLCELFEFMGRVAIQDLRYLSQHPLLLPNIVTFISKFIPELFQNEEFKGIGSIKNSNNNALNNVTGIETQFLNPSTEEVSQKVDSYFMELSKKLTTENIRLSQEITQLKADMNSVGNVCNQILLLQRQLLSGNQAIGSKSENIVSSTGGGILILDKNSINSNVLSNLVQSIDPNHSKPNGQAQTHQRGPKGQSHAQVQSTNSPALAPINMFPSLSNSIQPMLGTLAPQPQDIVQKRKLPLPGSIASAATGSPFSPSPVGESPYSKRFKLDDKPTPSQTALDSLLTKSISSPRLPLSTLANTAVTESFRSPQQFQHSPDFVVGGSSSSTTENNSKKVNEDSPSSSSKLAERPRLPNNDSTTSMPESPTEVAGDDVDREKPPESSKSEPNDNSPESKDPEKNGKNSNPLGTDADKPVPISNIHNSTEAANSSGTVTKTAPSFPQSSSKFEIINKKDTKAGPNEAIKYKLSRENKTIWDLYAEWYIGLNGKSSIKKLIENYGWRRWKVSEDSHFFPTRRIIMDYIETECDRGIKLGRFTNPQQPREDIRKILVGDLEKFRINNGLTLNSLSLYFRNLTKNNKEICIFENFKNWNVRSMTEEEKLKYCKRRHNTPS
# Assay: PBM E-score (8-mer binding enrichment) (E-score (-0.5 to 0.5)); higher = stronger / more preferred TF binding; most listed sequences are background and not binding sites
# Conditions: protein concentration: 100 nM; construct: GST-full length
# Procedure, shortened: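 Universal all-10-mer Agilent arrays, fresh or stripped once, were converted to double-stranded form by primer extension. GST-tagged yeast transcription factors from PURExpress in vitro transcription/translation, full-length or DNA-binding domain only, were applied at about 100-200 nM and detected with fluorescent anti-GST. After masliner normalisation, the Universal PBM Analysis Suite scored each ungapped eight-base word together with its reverse complement by E-score.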
row,Sequence,PBM E-score
1,ACAAAACG,-0.0227
2,AATAGTGT,0.125
3,GAGGTAGC,0.0843
4,TGCGGTAA,-0.097
5,CCTATGCC,-0.248
6,CACGGCCA,-0.0297
7,CCAGCAAG,-0.241
8,GGAGGGGA,0.204
9,GCCAACAA,0.0652
10,GAGAACTA,-0.0722
11,CACCCAAG,0.0733
12,TCATAGCA,-0.0893
13,CAAGATCC,0.18
14,CTTGAATC,-0.0608
15,CTGGAGGA,0.0832
16,CCGACGAG,-0.22
17,CGGGGCAG,-0.0418
18,GATCCTGA,0.0899
19,CCGAGGGC,-0.309
20,CAGCATCC,0.447
21,GCCGGGAA,-0.00974
22,AAACGACG,0.167
23,AACCTAGG,-0.0399
24,CGTGCTGA,-0.14
25,AGCCTTAC,-0.135

row,Sequence,PBM E-score
1,TACCCCCA,-0.142
2,GGTTAAAA,0.0973
3,ACACGTAA,-0.0351
4,TGCCTTAA,-0.0846
5,CTACTACC,0.048
6,GTCGCCCA,0.181
7,ATATAGGG,0.0698
8,CACACTGA,-0.137
9,GTACAGAA,-0.125
10,CTCACGCC,-0.0721
11,AACCCGCC,-0.056
12,GTGATGTA,-0.0573
13,GGGAGACC,-0.103
14,GAAAGGGC,-0.149
15,AAGACAAG,0.0261
16,GCAAGTAC,-0.139
17,AATCGATC,-0.0532
18,AGATGTGG,0.0129
19,AGCATGAC,-0.286
20,CTGAGTCC,-0.0288
21,CGTGGGTA,-0.0417
22,CTTGTCAC,-0.198
23,AATTGTTC,0.0249
24,TAGTCTAA,-0.0682
25,CCGAGCGC,-0.0224

row,Sequence,PBM E-score
1,CCTAAACA,0.147
2,ATATCCAA,0.0262
3,GCAAGGCC,-0.31
4,CGCTAACG,-0.18
5,TTCTCCAA,0.0271
6,CCCCTTAG,-0.0705
7,ACTAGTCG,0.065
8,CGATTGCA,-0.103
9,ACTCTAAG,-0.0197
10,ATTCGTGC,0.089
11,CATCGAAG,-0.186
12,AATTCTGG,0.122
13,GATTCGTA,0.15
14,AACAACCC,-0.0603
15,CTGTCCTA,-0.0722
16,TCTCCAAA,0.114
17,CGCTATCC,0.0288
18,AGGTCTAC,-0.166
19,GTATATTA,0.119
20,ACTCATTC,0.0285
21,AAGTGCTG,0.128
22,AATGTTGA,-0.0167
23,TGATAGAA,0.0528
24,GATTCTTA,0.238
25,AAAGGCTT,-0.194

row,Sequence,PBM E-score
1,CCGGTACG,-0.0393
2,CTTCCACC,0.0074
3,AGGAGTAA,-0.283
4,GAGCTTAA,-0.0131
5,ACTTATTA,0.27
6,CATAAGCG,-0.234
7,ACCAGTTC,0.121
8,CCTTGGCG,-0.218
9,CGAATAGA,0.0207
10,GCACTCGA,-0.117
11,GCCATCCA,0.086
12,CGTGTGAC,-0.186
13,CCGGAGAA,-0.189
14,ATCTAGTA,0.0833
15,GTCCGTAA,0.215
16,GCTGTTCC,-0.0695
17,ATGCTATG,-0.0316
18,AAGTTGGC,-0.0431
19,ATCAGGGA,0.0483
20,ACATGTCT,-0.133
21,ATAGCGAC,-0.00434
22,AAAGTGAG,0.0964
23,CGCAGCGC,0.15
24,ATTCGTCC,0.115
25,ATATACGA,0.0754

row,Sequence,PBM E-score
1,ACGAAACT,0.0936
2,GCGCCCAC,0.317
3,AGAGGGCA,-0.217
4,GTCTCTTA,-0.0385
5,CGCATTCA,0.174
6,AATGCTAC,-0.0602
7,CTAGTGGA,0.298
8,ATGACTGA,-0.0659
9,GAACCGCA,0.125
10,AACCTAGA,0.112
11,AAGCAACG,0.00994
12,AGAGCCGC,0.0326
13,ACGAAGCT,0.399
14,ATGTAGCC,-0.00792
15,ACATTGGA,0.147
16,ATTTAATG,0.0943
17,ACGGGTCG,0.0762
18,ATATCACC,0.0338
19,TGAAGGAA,-0.104
20,CGCGCCAA,0.115
21,CCGTTCTA,0.0976
22,CCGCAACA,-0.0641
23,CGCATCAG,0.0645
24,CATGGCAG,0.0933
25,AGCGCTGA,-0.171

row,Sequence,PBM E-score
1,TATTGAAA,0.0358
2,GCTGATCA,-0.0784
3,ATTGCCCG,-0.0949
4,ATTCTTGA,0.124
5,ATGATCAA,-0.104
6,GGTCCTAC,-0.141
7,CCGGTTAC,0.185
8,ATCAACCA,0.0911
9,CCGAGCCG,-0.0743
10,GATTTCAC,-0.0263
11,GGGCGTCA,-0.0614
12,GCCGCCAA,0.125
13,CCCTCACC,0.0473
14,CGCAAATA,-0.0166
15,AGTCGAAC,-0.0703
16,CAATCGCC,-0.0622
17,AGCGATCG,-0.292
18,AATTCAAT,0.0549
19,ATCAGCAC,0.185
20,GAACATGC,-0.179
21,ACGAAATC,0.0896
22,CCGACGCA,-0.165
23,AACCGGAA,0.2
24,AATGGGCT,-0.0285
25,TGGGGTAA,-0.0434

row,Sequence,PBM E-score
1,GCGCGGCC,-0.0347
2,ACGCCCTG,0.189
3,CATGCGCA,-0.147
4,CAACACAA,0.0702
5,ATAACATG,-0.151
6,AGCGCTGC,-0.216
7,ACCCAATA,0.126
8,AATGTAAG,-0.101
9,ATACATAT,0.0476
10,ACGCAGGA,0.00808
11,GATAATAC,-0.0678
12,GCTTTAAA,0.171
13,CCGCGTCG,-0.16
14,AAGAGGGG,0.0114
15,AACAGGGA,0.137
16,CGAATGCA,-0.0162
17,AGGAGCAC,0.163
18,CATGTGTA,-0.0616
19,AGGCCAAG,-0.245
20,AGATATTC,-0.0178
21,AATAAACG,0.132
22,ACATCTTG,-0.0325

# From the supplement of paper PMC3334620
